Results taken from paper PMC7819943, “Rice protein-binding microarrays: a tool to detect cis-acting elements near promoter regions in rice”.
The other results are listed elsewhere or left out.

target: T1, OsWOX13 (Oryza sativa, UniProt Q5QMM3 1-267); assay: protein-binding microarray (RPBM); PBS, 2% BSA, 51.3 ng/ul salmon testes DNA, 50 uM zinc acetate, 200 nM TF, 25 C, 1 h; high values mean tight binding; details: protein: recombinant; tags: N-terminal polyhistidine and DsRed monomer fusion (pET32a); label: CyDye5-dUTP incorporated in the synthesized complementary strand; 3' TTTTT single-stranded linker to array surface; dsDNA, one strand shown
T1 sequence: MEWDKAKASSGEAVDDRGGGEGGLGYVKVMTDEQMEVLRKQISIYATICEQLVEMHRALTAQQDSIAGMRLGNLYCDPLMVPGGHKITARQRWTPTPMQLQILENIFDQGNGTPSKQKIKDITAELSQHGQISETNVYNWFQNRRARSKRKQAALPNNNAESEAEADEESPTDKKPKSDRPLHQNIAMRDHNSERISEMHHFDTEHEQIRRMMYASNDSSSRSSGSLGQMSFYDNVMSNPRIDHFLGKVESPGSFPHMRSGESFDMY
In short: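 Polyhistidine-tagged DsRed fusions of transcription factors, joined at the N-terminus, were expressed in E. coli BL21-CodonPlus and isolated on Ni–NTA. They were incubated at 200 nM for 1 h at 25 °C on a custom Agilent array, double-stranded and BSA-blocked, in PBS with 2% BSA, salmon testes DNA and 50 µM zinc acetate. The binding signal is per-feature fluorescence intensity (arbitrary units) read on an Axon 4000B scanner after washing.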

| Sequence | binding signal |
| --- | --- |
| GGTAATTTATGCTCGCGGGCATACCCGTTACTACATGATGCGGAGTCACCTAGTGCAG | 10200 fluorescence intensity (a.u.) |
| CCATCCATTTTCATTAATGAACTAATCTCCAACTAAAATCCGGAGTCACCTAGTGCAG | 11500 fluorescence intensity (a.u.) |
| TCCGGAAGATTGGACCGATATATCACCTATCACTAAAAGACGGAGTCACCTAGTGCAG | 9920 fluorescence intensity (a.u.) |
| ACTGCTGTGTGTGGTCCGTAATTGATCAAAGAAAATATCACGGAGTCACCTAGTGCAG | 4950 fluorescence intensity (a.u.) |
| AGCTAATTCAGTCTCTGTTGATAGCTTCGTTGCCCAAGAGCGGAGTCACCTAGTGCAG | 5030 fluorescence intensity (a.u.) |
| TCTGATGAACCAAAGAATTGATGAAGTCAACCATATCAGCCGGAGTCACCTAGTGCAG | 9810 fluorescence intensity (a.u.) |
| TTTAATCTTCTTATTTGACTGATATGTGGACCCACATATTCGGAGTCACCTAGTGCAG | 5940 fluorescence intensity (a.u.) |
| CATCCATACATATAATTAGTTAGGTATCTAATCATGGATTCGGAGTCACCTAGTGCAG | 3250 fluorescence intensity (a.u.) |
| TTGATTGGTCACCATCAGCATAGCTACATGTAAGGAGCTACGGAGTCACCTAGTGCAG | 29200 fluorescence intensity (a.u.) |
| TCTCTTGATTTGTTCGTAATGTGATACTAATAGCAGTTTCCGGAGTCACCTAGTGCAG | 31600 fluorescence intensity (a.u.) |
| TTTAATTGATTATGTATGATTTCTGGATGATTACTCTTTTCGGAGTCACCTAGTGCAG | 43900 fluorescence intensity (a.u.) |
| GAAATACCAATTTAGTTAATAGATTGTTTCTCCAATACCTCGGAGTCACCTAGTGCAG | 21800 fluorescence intensity (a.u.) |
| CCATGCCAATCACCAACTGATTCTTATCTATTTTATCAAGCGGAGTCACCTAGTGCAG | 26800 fluorescence intensity (a.u.) |
| ATGATCTTGCCGTTAATCAATACATGCATTGGCTTGCAGCCGGAGTCACCTAGTGCAG | 3380 fluorescence intensity (a.u.) |
| TTAGATAGATATAAACACATCATTTACCCATTCTAATTCTCGGAGTCACCTAGTGCAG | 11000 fluorescence intensity (a.u.) |
| AAAATTGGAAAGTTTGGTTGAAATTGAAACGATGTGACGGCGGAGTCACCTAGTGCAG | 10500 fluorescence intensity (a.u.) |
| TTTTCTGTCTCTTTATCTCTTTAAAATATGTTTATAGCTGCGGAGTCACCTAGTGCAG | 3190 fluorescence intensity (a.u.) |
| TAAATTATAGTGCAATCATGATGTAATTATATTGTAACTTCGGAGTCACCTAGTGCAG | 15400 fluorescence intensity (a.u.) |
| CTTGAATGAATGTATGTCAAAGGAACCCATCACCGTTTCTCGGAGTCACCTAGTGCAG | 5020 fluorescence intensity (a.u.) |
| ATTATGTAATCAAAATTATGCCTTATTGCCTTTGAAAATTCGGAGTCACCTAGTGCAG | 3680 fluorescence intensity (a.u.) |
| TCTGCTGATTTTGCTGTTGCCTCTGCTGATTTCAATAATGCGGAGTCACCTAGTGCAG | 3770 fluorescence intensity (a.u.) |

| Sequence | binding signal |
| --- | --- |
| GATAGATTGAAACATCAAGGACTAAACTGAGCCTTAGGTGCGGAGTCACCTAGTGCAG | 45300 fluorescence intensity (a.u.) |
| TTAATTATTGTGAGTAATAGATTAACGACACACGTGTTGACGGAGTCACCTAGTGCAG | 23300 fluorescence intensity (a.u.) |
| ATTAAAATTTAAAATTTGACATCAGCTTATAAATATAGGGCGGAGTCACCTAGTGCAG | 18200 fluorescence intensity (a.u.) |
| AACGGCCCAGATTGATCCCCTTAACTACCGAAATGCCAGACGGAGTCACCTAGTGCAG | 5760 fluorescence intensity (a.u.) |
| GTTTTATAATTAGTGTATGTTTAATACTCTAAATTAGTGTCGGAGTCACCTAGTGCAG | 17800 fluorescence intensity (a.u.) |
| GATGATTTTACTAGCTAGTTAGATCGAGTTACAAACATATCGGAGTCACCTAGTGCAG | 6740 fluorescence intensity (a.u.) |
| TCAAAATTAGCAATTAAGTTCCGAAAATTCCAACAACAAACGGAGTCACCTAGTGCAG | 26100 fluorescence intensity (a.u.) |
| TTAATGATTATACAAGATCTAAAATCCTTTTATGTCCTTGCGGAGTCACCTAGTGCAG | 22200 fluorescence intensity (a.u.) |
| CATTAACCTTTTAATGACTAATTATACTATGCCACCCCTCCGGAGTCACCTAGTGCAG | 9110 fluorescence intensity (a.u.) |
| CTCTCAATTCCGGATAGACATGTTCCACTGCAAAGAAAGCCGGAGTCACCTAGTGCAG | 3400 fluorescence intensity (a.u.) |
| GGTTGAAATTATTTATTGTTGGTAAATTAAGTAAAGTCGCCGGAGTCACCTAGTGCAG | 9510 fluorescence intensity (a.u.) |
| GAGTTGTTTATTTTGCAATAATTAAGATCATCGATCAGATCGGAGTCACCTAGTGCAG | 3880 fluorescence intensity (a.u.) |
| ATAAATAAACTTATTTTGAGATAATGGTGTAATAGTGTAGCGGAGTCACCTAGTGCAG | 5300 fluorescence intensity (a.u.) |
| AGAAACCTCGTTAGTGCATAATTAATTAAGTATTAGTTATCGGAGTCACCTAGTGCAG | 3450 fluorescence intensity (a.u.) |
| TGTAATTTGTTTTGTTAGTAGACTACGCTTAATACTTCAACGGAGTCACCTAGTGCAG | 4700 fluorescence intensity (a.u.) |
| GCTAAATTTCCTCTAAAATTCACATGCAATGTGCCATTCCCGGAGTCACCTAGTGCAG | 4700 fluorescence intensity (a.u.) |
| TCGTTAATTTGCAACCATACCTTAGCTCCACACTCCACGACGGAGTCACCTAGTGCAG | 23200 fluorescence intensity (a.u.) |
| TGACCATTGCTAGATTGACACTCTGATCTGATCACCGTTGCGGAGTCACCTAGTGCAG | 22400 fluorescence intensity (a.u.) |
| CTAATTAATATATATATATTGGATATTTCACGTTTTCACGCGGAGTCACCTAGTGCAG | 23700 fluorescence intensity (a.u.) |
| GTGTTAATTTGCCGCTTGGTTTGCGTGAGTAGTTAAGCATCGGAGTCACCTAGTGCAG | 19900 fluorescence intensity (a.u.) |
| ACTCCTTCACATAAATAAACAGAAAGAATGATAGGGCAAACGGAGTCACCTAGTGCAG | 4250 fluorescence intensity (a.u.) |
